Data as given in ChEMBL document CHEMBL4888484, “Replenishing the malaria drug discovery pipeline: Screening and hit evaluation of the MMV Hit Generation Library 1 (HGL1) against asexual blood stage Plasmodium falciparum ,using a nano luciferase reporter read-out” (2022).
The whole screen tested about 150,000 compounds, of which about 540 (0.36%) showed an effect of 50% or more. Some of the results follow.

Each compound was assayed on Plasmodium falciparum (assay: Primary screen in NF54 nanoGlo assay, in single point, at 2uM, 72h; a lower Z score goes with more inhibition). Settings: timepoint 72 hour.
Format: functional, Erythrocyte

Row | Structure (SMILES) | % Inhibition | Z score
1 | O=C1NCC(=O)N2CCN(C(=O)c3cccc4c3OCC4)C[C@@H]12 | 4% | -0.6
2 | O=S(=O)(NC1CCC(O)CC1)c1csc2ccc(Cl)cc12 (stereo not drawn) | -1% | 0.1
3 | CC1CN(C(=O)c2cnc(-c3ccccn3)s2)CC(C)N1 (stereo not drawn) | -1% | 0.11
4 | Cc1cc(Cl)ccc1NC(=O)COc1ccc2[nH]c3ccccc3c(=O)c2c1 | -2% | 0.22
5 | CCc1ccc(NC(=O)c2scc(-c3ccccc3)c2S(=O)(=O)N(C)c2ccccc2)cc1 | -6% | 0.83
6 | CC1CN(C(=O)CC2C=CCC2)C1c1ccccc1 (stereo not drawn) | -5% | 0.47
7 | CC(C)c1ccc(NC(=O)CCc2cccc3[nH]ccc23)cc1 | -6% | 0.71
8 | COc1ccsc1S(=O)(=O)N(C)c1ccc2ccccc2n1 | -2% | 0.43
9 | CCC(C)NC(=O)CN1CCCC(c2cc(C(N)=O)[nH]n2)C1 (stereo not drawn) | -14% | 1.55
10 | CCOC(=O)C1CCN(C[C@]2(O)CCCN(CC3CCC3)C2=O)CC1 | -1% | 0.07
11 | CCN(CC)C(=O)COC(=O)Cc1ccc(Cl)cc1 | 29% | -3.94
12 | CC1=NC2(CCN(c3ncnc4c3c(C)nn4C)CC2)C(=O)N1 | -1% | 0.2
13 | COc1ccc(N2CCN(C(=O)c3noc(-c4ccc(C)cc4)n3)CC2)cc1 | -10% | 0.92
14 | COCCCN1C(=O)c2ccccc2N[C@@H]1c1ccco1 | -4% | 0.6
15 | COC(=O)c1ccc(CNS(=O)(=O)c2c(C)noc2C)cn1 | -11% | 1.39
16 | CN(CC(F)(F)F)C(=O)Nc1ccc(S(C)(=O)=O)cc1 | -15% | 2.2
17 | COC(CS(=O)(=O)Nc1nnc(-c2ccc(F)cc2F)o1)C1CCOC1 (stereo not drawn) | -8% | 0.98
18 | O=C(CN(CCO)c1ccc(Br)cc1)NC1CCCC1 | -1% | 0.19
19 | C[C@H]1C(=O)N(C)CCN1Cc1cc(C(C)(C)C)on1 | -32% | 3.74
20 | O=C(c1ccccc1Cl)N1CCc2ncncc2C1 | -9% | 1.76
21 | NC(=O)c1nccnc1C(=O)N[C@H]1CCN(c2ccc(Cl)cc2)C1 | -1% | 0.11
22 | CCCCOCCS(=O)(=O)Cc1csc(-c2ccc(OCC)c(OC)c2)n1 | -1% | 0.07
23 | CN(C)CCn1ccnc1C1CCN(C(=O)c2cn(C)c3ccccc23)CC1 | -19% | 1.66
24 | COc1cccc(Cn2ccnc2CN(Cc2ccco2)C(=O)c2ccc(F)cc2)c1 | -4% | 0.54
25 | COc1cccc(-n2nc(C(=O)NC[C@H]3CCCO3)c(=O)n(Cc3cccc(C)c3)c2=O)c1 | -13% | 2.58
26 | CCC(c1ccccc1)C1CCCN1CC(=O)NC(C)C (stereo not drawn) | -1% | 0.14
27 | C[C@H]1CN(C(=O)CCn2cc(Br)ccc2=O)CCN1 | -9% | 1.04

Row | Structure (SMILES) | % Inhibition | Z score
28 | Cc1nc(-c2ccccc2OC2CN(S(=O)(=O)c3c(C)nn(C)c3C)C2)no1 | 7% | -0.8
29 | CCc1nn(CC(=O)N2CCCC2)c(=O)c2cc3ccccc3n12 | -15% | 2.89
30 | O=C(CNC(=O)C1CC1c1ccc(F)c(F)c1)Nc1ccc(F)cc1 (stereo not drawn) | -4% | 0.81
31 | CC(NC(CO)c1ccccc1)C1CN(Cc2ccccc2)CCO1 (stereo not drawn) | -14% | 2.28
32 | CC(C)(C)[C@H](NC1CCN(CC(N)=O)CC1)c1cc2ccccc2o1 | 0% | 0.01
33 | CNC(=O)[C@H]1CC[C@H](CNc2nccc(N)n2)CC1 | 4% | -0.78
34 | CCC(C)NCC(O)Cn1c(-c2ccccc2)c(-c2ccccc2)c2cc(C)ccc21 (stereo not drawn) | 93% | -10.06
35 | Cc1ccc(C(=O)Nc2nc3nc(-c4ccccc4)cc(O)n3n2)cc1 | 32% | -3.65
36 | CC(C)(C)N(Cc1ccccn1)C(=O)[C@@H]1CC=CCC1 | 5% | -0.5
37 | COc1cccc([C@H]2CC(=O)Nc3c2cnn3C)c1OCc1ccccc1F | 28% | -3.14
38 | C[C@@](CO)(NC(=O)Nc1ccccn1)c1cccc(C(F)(F)F)c1 | -4% | 0.6
39 | CC(C)O[C@@H]1CCN(c2nnc(-c3ncccn3)n2C)C1 | 3% | -0.56
40 | CC1CC(C)CN(S(=O)(=O)c2ccc(NC(=O)C3CCC3)cc2)C1 (stereo not drawn) | -11% | 1.7
41 | Cc1onc(C(=O)N(CCO)Cc2cccs2)c1CO | -17% | 2.49
42 | Cc1nnc(CN2C(=O)N[C@@]3(CCCCc4ccccc43)C2=O)s1 | -6% | 0.82
43 | CCCn1ccnc1CN1C[C@@H]2CC[C@H]1CN(S(=O)(=O)N(C)C)C2 | -8% | 1.32
44 | CC(C)(C)C(=O)N1CCc2[nH]nc(-c3ccc(F)c(F)c3)c2C1 | -5% | 0.81
45 | COc1ccc(-c2nc(-c3ccc(OCc4cccc(F)c4)c(OC)c3)no2)c(OC)c1 | -25% | 2.44
46 | O=C(Cc1ccc(CO)cc1)N1CCC([C@@H](O)CCc2ccccc2)CC1 | 5% | -0.7
47 | C=CCn1cc(CN(Cc2c(C)nn(C)c2C)C(C)C)c(C)n1 | -13% | 1.85
48 | Cc1cnccc1CN(C)C(=O)c1ccc2cccnc2n1 | -10% | 1.07
49 | Cc1cccc2nc(C(=O)N3CCS(=O)(=O)CC3)c(F)n12 | 6% | -0.84
50 | COC(=O)c1cc(OC)ccc1-c1cccc(C(=O)N2CCNC[C@@H]2C)c1 | -17% | 1.67
51 | Cc1csc(NC(=O)c2cnc(C(C)C)s2)n1 | 4% | -0.54
52 | O=C(c1ccc2c(c1)COCO2)N1CCC[C@H](N2CCCCCC2)C1 | -14% | 1.36
53 | CC(C)CN(Cc1cc(NC(=O)NC(C)C)ccc1N(C)C)C(=O)CC(C)(C)C | -9% | 1.21
54 | O=C(CC[C@H]1CCOC1)N1Cc2cnn(-c3ccccc3)c2C1 | -10% | 1.09
